# Experimental data: publication PMC545490, “Mapping and mutation of the conserved DNA polymerase interaction motif (DPIM) located in the C-terminal domain of fission yeast DNA polymerase δ subunit Cdc27” (BMC Molecular Biology, 2004)
# Sequences of proteins named here, by UniProt entry; tags and fusion partners are left off. Residues count along the entry.
# UniProt P09884, residues 291-540: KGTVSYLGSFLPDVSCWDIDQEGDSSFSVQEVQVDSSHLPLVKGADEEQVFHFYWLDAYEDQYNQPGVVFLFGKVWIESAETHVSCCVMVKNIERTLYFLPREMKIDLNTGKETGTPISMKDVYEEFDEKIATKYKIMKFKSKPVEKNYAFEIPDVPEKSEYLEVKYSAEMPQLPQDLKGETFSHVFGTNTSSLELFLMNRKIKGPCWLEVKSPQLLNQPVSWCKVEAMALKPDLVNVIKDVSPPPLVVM
# Substitutions are numbered along the chain they refer to. Results are given in words; binding and its absence hold for the method and conditions named. Some results given as binding are weak or reduced against the parent protein; the word gives no strength. For part of these data: Tags and fused reporters may be left off the sequences shown.
# T1: LexA-Pol1-278-527 (S. pombe, UniProt P28040 278-527)
# T1 construct: Pol1, catalytic subunit of DNA polymerase α, S. pombe, amino acids 278–527; source: yeast two-hybrid fusion (pBTM116, S. cerevisiae CTY10-5d)
# T1 sequence (looked up): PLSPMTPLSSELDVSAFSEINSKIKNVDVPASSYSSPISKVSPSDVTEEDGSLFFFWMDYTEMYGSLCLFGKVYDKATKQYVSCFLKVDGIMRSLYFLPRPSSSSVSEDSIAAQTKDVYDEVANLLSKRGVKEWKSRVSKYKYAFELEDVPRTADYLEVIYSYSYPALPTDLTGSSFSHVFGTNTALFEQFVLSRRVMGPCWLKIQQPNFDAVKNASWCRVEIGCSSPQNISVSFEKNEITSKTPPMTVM
# T2: Cdc27 co-expressed as bridge in the two-hybrid system (S. pombe) (UniProt P30261)
# T2 sequence: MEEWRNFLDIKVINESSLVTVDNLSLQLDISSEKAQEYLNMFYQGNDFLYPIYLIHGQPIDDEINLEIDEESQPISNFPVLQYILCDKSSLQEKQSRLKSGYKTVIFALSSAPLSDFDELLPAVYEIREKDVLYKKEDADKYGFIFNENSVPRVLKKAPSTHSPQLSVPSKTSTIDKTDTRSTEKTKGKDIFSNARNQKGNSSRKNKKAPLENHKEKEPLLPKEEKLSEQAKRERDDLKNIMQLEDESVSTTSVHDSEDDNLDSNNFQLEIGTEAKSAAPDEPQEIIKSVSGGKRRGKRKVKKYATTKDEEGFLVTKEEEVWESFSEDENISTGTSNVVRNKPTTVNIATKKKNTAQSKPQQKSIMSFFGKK
# B1: Cdc27 co-expressed as bridge in the two-hybrid system (protein, UniProt P30261 1-372)
# chain: T2 sequence
# B2: Gal4 AD-Pcn1 (protein, UniProt Q03392 1-260)
# chain: MLEARFQQAALLKKLLDAIKELVTDANFDCNDNGISLQAMDSSHVALVSMLIKSDGFEPYRCDRNIALGINLNALSKVLRCAQNEDLVTLKAEDTPEVLNLVFESEKNDRISDYDVKLMDIDQEHLGIPDIEYDATITMPAAEFQRITRDLLTLSDSVTINASKEGVRFSCKGDIGNGSTTLKQHTDLSDQDQSIEISLTQAVTLTFSLKYLAQFTKATPLATRVTLSMSNDVPLLVEYKMESGFLRFYLAPKIGEEDEE
# B3: Gal4-Cdc27-273-352 (wild type) (domain or fragment, UniProt P30261 273-352)
# chain: TEAKSAAPDEPQEIIKSVSGGKRRGKRKVKKYATTKDEEGFLVTKEEEVWESFSEDENISTGTSNVVRNKPTTVNIATKK
# B4: Gal4-Cdc27-273-352-P3 (domain or fragment, UniProt P30261 273-352)
# chain: B3 chain with K22A, R23A, R24A
# B5: Gal4-Cdc27-273-352-P5 (domain or fragment, UniProt P30261 273-352)
# chain: B3 chain with K30A, K31A
# B6: Gal4 activation domain fusion of the entire C-terminal domain of human p66 (amino acids 253–466) (domain or fragment, UniProt Q15054 253-466)
# chain: SEQAVKEEKIVEQPTVSVTEPKLATPAGLKKSSKKAEPVKVLQKEKKRGKRVALSDDETKETENMRKKRRRIKLPESDSSEDEVFPDSPGAYEAESPSPPPPPSPPLEPVPKTEPEPPSVKSSSGENKRKRKRVLKSKTYLDGEGCIVTEKVYESESCTDSEEELNMKTSSVHRPPAMTVKKEPREERKGPKKGTAALGKANRQVSITGFFQRK
# B7: Gal4 activation domain fusion of the C-terminal 111 amino acids of human p66 (356–466) (domain or fragment, UniProt Q15054 356-466)
# chain: SPPLEPVPKTEPEPPSVKSSSGENKRKRKRVLKSKTYLDGEGCIVTEKVYESESCTDSEEELNMKTSSVHRPPAMTVKKEPREERKGPKKGTAALGKANRQVSITGFFQRK
# B8: Gal4-Cdc27-273-352-P1 (domain or fragment, UniProt P30261 273-352)
# chain: B3 chain with D37A, E38A, E39A
# B9: Gal4-Cdc27-273-352-P2 (domain or fragment, UniProt P30261 273-352)
# chain: B3 chain with G40A, F41A
# B10: Gal4-Cdc27-273-352-Q1 (domain or fragment, UniProt P30261 273-352)
# chain: B3 chain with D37A, E38A, E39A, G40A, F41A
# B11: Gal4-Cdc27-273-352-P4 (domain or fragment, UniProt P30261 273-352)
# chain: B3 chain with K26A, R27A, K28A
# B12: Gal4-Cdc27-273-352-P6 (domain or fragment, UniProt P30261 273-352)
# chain: B3 chain with E46A, E47A, E48A
# Molecular target: T1, LexA-Pol1-278-527
# Assay: two-hybrid; Gal4 AD-Pcn1 prey and LexA-Pol1(278–527) bait with Cdc27 co-expressed as bridge; β-galactosidase activity
row,binding,Binder
1,binds,B1

# Molecular target: T2, Cdc27 co-expressed as bridge in the two-hybrid system (S. pombe)
# Assay: as above
row,binding,Binder
1,binds,B2

# Molecular target: T1, LexA-Pol1-278-527
# Assay: two-hybrid; Gal4 AD prey (pACT2) and LexA bait (pBTM116) in S. cerevisiae lexA op-lacZ strain CTY10-5d; β-galactosidase activity in Miller units
row,binding,Binder
1,binds,B3
2,binds,B4
3,binds,B5
4,binds,"GKRRGKRKVKKYATTKDEEGFLVTKEEEVWESFSEDENIS (domain or fragment, UniProt P30261 293-332) [Gal4 AD-Cdc27 (amino acids 293–332)]"
5,binds,B6
6,binds,B7
7,no binding,B8
8,no binding,B9
9,no binding,B10
10,no binding,B11
11,no binding,B12

# Molecular target: LexA fusion of amino acids 291–540 of the human Pol α catalytic subunit (human) (UniProt P09884)
# Assay: as above
row,binding,Binder
1,binds,B6
2,binds,B7
